Results as given in PubChem BioAssay AID445 (National Center for Advancing Translational Sciences (NCATS), 2006).
In all, about 110,000 compounds went through this assay and about 40 (0.04%) were called active. The inconclusive results got no clear call from the source; some entries with a clear call stand among them for comparison. The call rests on the fitted dose curve; in most records, active means well fitted curve in the direction sought with a large enough effect in the signal ratio (not every such curve was filed as active); inconclusive means small, poorly fitted or top-dose-only effect, or a change in a side signal; inactive means flat fitted curve, though single readings scatter; the % refers to the signal ratio. Potencies of inconclusive entries are doubtful fits and often do not repeat.
Potency means the concentration at half of the fitted maximal effect.

Assay: IkB Signaling;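 on IkBa stabilization activation: 0% = basal untreated cells and 100% = reference inhibitor full response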
Conditions: ABC-DLBCL IkBa-CBG/CBR dual luciferase ratio (green luciferase fused to IkBa over red control in OCI-Ly3 lymphoma cells), 4 h; IkBa stabilization activation: at 57.1 µM (top of the series), scaled: untreated 0%, proteasome inhibitor 100% unless noted
Method in brief: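 In this assay, an IκBα–CBG68 fusion accumulates when IKK-driven degradation is blocked; native CBR normalizes for cell number. OCI-Ly3 cells were treated 4 h with compound and doxycycline, then green and red light read after Chroma-Glo addition.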
In the case of `Cc1cc2cc(CNC(=O)Nc3ccccc3)ccc2n1C`, the IkBa stabilization activation is reported as inconclusive: 6.52% [signal inhibitor]. In the case of `Cc1ccc(-n2nnnc2SC(C)C(=O)Nc2ccc(Cl)cn2)cc1` (centres undefined), the IkBa stabilization activation is reported as inconclusive: 5.16% [signal inhibitor]. With `COc1cc2c(=O)n(CCc3ccccc3)c(=O)n(CC(=O)Nc3ccccc3)c2cc1OC` the Potency was inconclusive: 31.6 µM [signal inhibitor, single point]. For `COc1cc(NC(=O)CSc2ncc(S(=O)(=O)c3ccc(Br)cc3)c(=O)[nH]2)cc(OC)c1`, the IkBa stabilization activation was inconclusive: 3.25% [signal inhibitor]. In the case of `CC1(COc2ccc(C[C@H]3SC(=O)NC3=O)cc2)CCCCC1`, the IkBa stabilization activation is reported as inconclusive: 1.06% [signal inhibitor]. For `O=c1c(-c2ccc(Cl)cc2)nc2cnc(N3CCOCC3)nc2n1CCc1ccccc1`, the IkBa stabilization activation was inactive: -1.09% [at 11.4 µM, scaled: untreated 0%, proteasome inhibitor 100%]. For `COCCCNC(=O)c1oc2ccc(S(=O)(=O)N(C)C3CCCCC3)cc2c1C`, the IkBa stabilization activation was inconclusive: 6.22% [signal inhibitor]. With `CCN(CC)c1nc(N)c2c(N)n(-c3ccccc3C)c(=S)c(C#N)c2c1C#N` the IkBa stabilization activation was “inactive”. With `CCCc1cc(C(N)=O)c(NC(=O)c2cc(C)on2)s1` the IkBa stabilization activation was “inactive”. In the case of `CCN(CC)S(=O)(=O)c1ccc2oc(C(=O)N(C)Cc3ccccc3)c(C)c2c1`, the IkBa stabilization activation is reported as inconclusive: 13.6% [signal inhibitor]. In the case of `CCCCOc1cccc(C(=O)N(Cc2sccc2C)C2CCS(=O)(=O)C2)c1` (centres undefined), the IkBa stabilization activation is reported as inconclusive: -0.442% [signal inhibitor]. In the case of `COc1cc(C2CC(=O)Nc3cc4c(cc32)OCCO4)cc(Br)c1OC` (centres undefined), the IkBa stabilization activation is reported as inconclusive: 13.4% [signal activator]. With `COc1ccc(Cn2c(=O)c3oc4ccccc4c3n(Cc3ccc(F)cc3)c2=O)cc1` the IkBa stabilization activation was inconclusive: -2.56% [signal inhibitor]. With `Cc1cccc(N2CCN(C(=O)CCCCn3c(=O)[nH]c4ccsc4c3=O)CC2)c1C` the IkBa stabilization activation was inconclusive: 2.36% [signal inhibitor]. In the case of `COc1ccc(CNC(=O)c2ccc(CS(=O)(=O)c3ccccc3OC)o2)cc1`, the IkBa stabilization activation is reported as inconclusive: 1.47% [signal inhibitor]. For `Cc1ccc(C)c(-c2[nH]c3c(c2-c2c(-n4cccc4)n(C)c(=O)[nH]c2=O)c(=O)[nH]c(=O)n3C)c1`, the IkBa stabilization activation was “inactive”. For `Cc1ccc(Nc2ncccc2C(=O)O)cc1C`, the Potency was inconclusive: 25.1 µM [signal inhibitor, partial curve]. With `CCC(C)NC(=O)c1cnn2c(C)c3c(nc12)CCCC3` (centres undefined) the IkBa stabilization activation was “inactive”. In the case of `COc1ccc(N2C(=O)CSC2c2ccc3c(c2)OCO3)cc1` (centres undefined), the IkBa stabilization activation is reported as “inactive”. With `CCCC(=O)Nc1ccc(-c2nc3cc(C)ccc3o2)cc1` the IkBa stabilization activation was inconclusive: 0.238% [signal inhibitor]. In the case of `O=C1CCSC2(C(=O)N(Cc3ccc(F)cc3)c3ccccc32)N1c1ccc(F)c(F)c1` (centres undefined), the IkBa stabilization activation is reported as inconclusive: -2.14% [signal inhibitor]. For `CCc1ccc(-c2nc(CS(=O)CC(=O)NCCc3ccc(Cl)cc3)c(C)o2)cc1` (centres undefined), the IkBa stabilization activation was inconclusive: 1.18% [signal inhibitor]. In the case of `Cc1ccc(Cn2cccc(NC(=O)c3ccco3)c2=O)cc1`, the IkBa stabilization activation is reported as “inactive”. For `CCOc1ccc2oc(=O)cc(CN3CCN(C(=O)c4ccc(F)cc4)CC3)c2c1`, the IkBa stabilization activation was inconclusive: 1.24% [signal inhibitor]. With `Cc1c(C(=O)Nc2cccc(Cl)c2)oc2ccc(S(=O)(=O)N(C)C3CCCCC3)cc12` the IkBa stabilization activation was inconclusive: 3.45% [signal inhibitor]. In the case of `CCN(CC)c1ccc(NC(=O)c2cccc(C)c2OC)c(C)c1`, the IkBa stabilization activation is reported as “inactive”. With `O=C1c2ccccc2C(Nc2cccc(C(F)(F)F)c2)N1Cc1ccco1` (centres undefined) the IkBa stabilization activation was inconclusive: 3.22% [signal inhibitor]. With `COC(=O)CCCCCNc1ccc(C(=O)OC)cc1N` the Potency was inconclusive: 15.8 µM [signal inhibitor, partial curve]. In the case of `CCC(Sc1nncn2c1cc1oc(C)cc12)C(=O)Nc1ccc(F)cc1` (centres undefined), the IkBa stabilization activation is reported as inconclusive: 2.68% [signal inhibitor]. With `COc1ccc(CCNC(=O)C(=O)NCC(c2ccco2)S(=O)(=O)c2ccc(F)cc2)cc1` (centres undefined) the IkBa stabilization activation was inconclusive: 4.67% [signal inhibitor]. For `COc1ccc(-c2cc(O)cc(O)c2)cc1`, the IkBa stabilization activation was “inactive”. In the case of `O=C(Cn1[nH]c(=O)c2ccccc2c1=O)Nc1ccc2c(c1)CCC2`, the IkBa stabilization activation is reported as inconclusive: 1.2% [signal inhibitor]. For `CCOc1ccccc1NC(=O)CCn1nc(C)c(S(=O)(=O)N2CCCCC2)c1C`, the IkBa stabilization activation was inconclusive: 1.58% [signal inhibitor]. With `CCCC(c1nnnn1Cc1ccc(F)cc1)N1CCN(C2CCCCC2)CC1` (centres undefined) the IkBa stabilization activation was “inactive”. For `O=C(Cn1ncc2c3ccccc3n(Cc3cccc(Cl)c3)c2c1=O)NC1CCCCCC1`, the IkBa stabilization activation was inconclusive: 0.483% [signal inhibitor]. With `COc1cc(OC)c(Nc2cc(C)nc3nc(C)nn23)cc1Cl` the IkBa stabilization activation was “inactive”. With `CCCc1cc(C(=O)Nc2nccs2)cs1` the Potency was inconclusive: 39.8 µM [signal inhibitor, single point]. For `COc1ccccc1Nc1nn2c(=O)c3ccc(C(=O)Nc4ccc(F)cc4)cc3nc2s1`, the IkBa stabilization activation was inconclusive: -2.08% [signal inhibitor]. For `CCOc1ccc2oc(=O)cc(CN3CCN(C(=O)c4cccc(F)c4)CC3)c2c1`, the IkBa stabilization activation was inconclusive: 0.302% [signal inhibitor]. With `CCOC(=O)c1ccc(NC(=O)CCc2c(C)n(CC)c3cc(-c4ccccc4OC)nn3c2=O)cc1` the IkBa stabilization activation was inconclusive: 2.65% [signal inhibitor]. For `CC(=O)Nc1cccc(Cn2cccn2)c1`, the IkBa stabilization activation was “inactive”. In the case of `CCNC(=O)c1ccccc1NC(=O)c1cccc(S(=O)(=O)N2CCC(C)CC2)c1`, the IkBa stabilization activation is reported as inconclusive: 6.13% [signal inhibitor]. With `COCCn1c(=O)c(CCc2ccccc2)nc2cnc(N(C)C)nc21` the IkBa stabilization activation was inactive: -4.43% [at 11.4 µM, scaled: untreated 0%, proteasome inhibitor 100%]. In the case of `O=C(O)c1ccc(S(=O)(=O)c2ccc3c(c2)C(=O)N(Cc2ccco2)C3=O)cc1`, the IkBa stabilization activation is reported as “inactive”. In the case of `CC(NC(=O)C1CCN(C(=O)N2CCOc3ccc(Cl)cc32)CC1)c1ccccc1` (centres undefined), the IkBa stabilization activation is reported as inconclusive: -3.95% [signal inhibitor]. In the case of `CCC(=O)OCc1cnc(C)c2oc(=O)c(C(=O)Nc3ccc(CC)cc3)cc12`, the IkBa stabilization activation is reported as “inactive”. With `COc1ccc(N2CCN(C(=O)c3nn(C)c4c3CS(=O)(=O)c3ccccc3-4)CC2)cc1` the IkBa stabilization activation was inconclusive: 6.47% [signal inhibitor]. In the case of `COc1ccc(-c2nc3c(c(SCc4cc(C)ccc4C)n2)Cc2c(CO)cnc(C)c2O3)cc1`, the IkBa stabilization activation is reported as “inactive”. In the case of `O=C(CCSCc1ccc(Cl)cc1)N1CCN(c2ccccc2F)CC1`, the IkBa stabilization activation is reported as inconclusive: 1.29% [signal inhibitor]. With `CCOc1ccc(C2=Nn3cnnc3SC2)cc1` the IkBa stabilization activation was “inactive”. With `Cc1ccc(CNC(=O)CCn2ccc3cc(S(=O)(=O)N4CCCC4)ccc32)cc1` the IkBa stabilization activation was inconclusive: 0.592% [signal inhibitor]. For `COc1ccccc1NC(=O)CSc1nnc(-c2nonc2NC(C)=O)n1-c1ccccc1`, the IkBa stabilization activation was inconclusive: 9.69% [signal inhibitor]. For `c1ccc(-c2nc(NC3CC3)nc(-n3ccnc3)n2)cc1`, the IkBa stabilization activation was “inactive”. With `Cc1nn(-c2ccc(C(=O)O)cc2)c(N)c1-c1ccccc1` the Potency was inconclusive: 6.31 µM [falling, single point]. For `CCCc1cc(=O)n2[nH]c(-c3ccccc3)cc2n1`, the Potency was inconclusive: 15.8 µM [signal inhibitor, partial curve]. For `O=C1CC(c2ccco2)CC2=C1C(c1ccccc1)n1nc(C(F)(F)F)nc1N2` (centres undefined), the IkBa stabilization activation was inconclusive: 6.1% [signal inhibitor]. With `COc1ccc(N2CCN(C(=O)c3ccc(NC(=O)c4nsc5ccccc45)cc3)CC2)cc1` the Potency was inconclusive: 3.98 µM [signal inhibitor, partial curve]. For `CCn1c(SCC(=O)N2CCCc3ccccc32)nc2ccccc2c1=O`, the IkBa stabilization activation was inconclusive: 3.49% [signal inhibitor]. For `CN1C(=O)C2(Nc3ccccc3-c3nc4ccccc4n32)c2ccccc21` (centres undefined), the IkBa stabilization activation was inconclusive: 2.6% [signal inhibitor]. With `CCOC(=O)COc1ccc(S(=O)(=O)NCc2cccnc2)cc1` the IkBa stabilization activation was “inactive”. In the case of `Cc1ccc(C)c(N2CCN(C(=O)c3cc4cc5ccc(C)cc5nc4s3)CC2)c1`, the IkBa stabilization activation is reported as inconclusive: 0.556% [signal inhibitor]. In the case of `CCN(CC)C(=O)c1sc2nc(-c3ccccn3)[nH]c(=O)c2c1C`, the IkBa stabilization activation is reported as “inactive”. For `Nc1ccc(CCNc2ncnc3c2ncn3[C@@H]2O[C@@H](CO)[C@H](O)[C@@H]2O)cc1`, the IkBa stabilization activation was inconclusive: 6.31% [signal activator]. For `COc1ccc(-c2cc(OC(=O)c3ccc(F)cc3)c3c(C)oc(C)c3c(=O)c2)cc1OC`, the IkBa stabilization activation was inconclusive: -0.341% [signal inhibitor]. For `Cc1ccc(Cc2c(C)nn(-c3nc(C)c(C(=O)N4CCCCC4C)s3)c2C)cc1` (centres undefined), the IkBa stabilization activation was inconclusive: 0.715% [signal inhibitor]. In the case of `COc1ccc(-c2noc(CSc3nnc(-c4ccccc4)n3-c3ccc(F)cc3)n2)c(OC)c1`, the IkBa stabilization activation is reported as inconclusive: -1.18% [signal inhibitor]. In the case of `O=C(Nc1ccc(-c2nc3ccccc3[nH]2)cc1)C1CCCO1` (centres undefined), the IkBa stabilization activation is reported as inconclusive: 6.58% [signal inhibitor]. For `O=C(CCCc1ccccc1)N1CCc2ccccc21`, the Potency was inconclusive: 15.8 µM [signal inhibitor, partial curve]. With `c1ccc(-c2oc3ncnc(NCCN4CCOCC4)c3c2-c2ccccc2)cc1` the IkBa stabilization activation was inconclusive: -14.6% [signal inhibitor].
